The values that follow come from PubChem BioAssay (NCI).

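In this assay, cells in 96-well plates receive the compound at five concentrations for 48 hours. Endpoints are linearly interpolated between the surrounding concentrations. GI50 = concentration required for 50% inhibition of growth. TGI denotes the concentration required for complete inhibition of growth.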 Some results are limits rather than exact numbers.

This assay has as its system NCI-H322M lung. Kind of assay: DTP human tumour cell line panel, 48 h.
As usually defined, the GI50 is the concentration giving 50% growth inhibition. Broadly, the TGI is the concentration giving total growth inhibition. On to `CC[C@H](C)[C@H]1NC(=O)[C@@H]([C@H](O)C(C)C)NC(=O)[C@@H](C)N(C)C(=O)[C@H](C)N(C)C(=O)[C@H](CC(C)C)NC(=O)[C@H](CC(C)C)N(C)C(=O)[C@H](C)N(C)C1=O`, for which the GI50 was 0.202 µM and the TGI amounted to 5.27 µM.

Take `O=c1[nH]c(Sc2sc3ccc(Cl)cc3c2CBr)nc(=S)[nH]1`: the GI50 is greater than 100 µM and the TGI was greater than 100 µM.

For `CCN(CC)CCOc1ccc(C(=C(c2ccccc2)C2CCCC2)c2ccc(OCCN(CC)CC)cc2)cc1`, the GI50 was greater than 16.3 µM and the TGI was greater than 16.3 µM.

Take `C#C[C@]1(O)CC[C@H]2[C@@H]3CC=C4c5sc(NCc6ccccc6)nc5CC[C@]4(C)[C@H]3CC[C@@]21C`: the GI50 was 3.89 µM and the TGI is 15.7 µM.
